# Laboratory results published in article PMC4751363.
# Amino acid sequences for entries named in this document (tags omitted). A change or cut given only in a name is not applied to a line headed by its entry. Residues count along the entry.
# UniProt Q8QZY6: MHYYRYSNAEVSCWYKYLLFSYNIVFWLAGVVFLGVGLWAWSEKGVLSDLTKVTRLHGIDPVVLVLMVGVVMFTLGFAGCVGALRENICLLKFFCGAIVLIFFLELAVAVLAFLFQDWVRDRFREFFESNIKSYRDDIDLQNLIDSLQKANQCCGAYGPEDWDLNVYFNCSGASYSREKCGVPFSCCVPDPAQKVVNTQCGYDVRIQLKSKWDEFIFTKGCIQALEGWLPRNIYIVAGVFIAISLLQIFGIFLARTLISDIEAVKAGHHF
# UniProt F7BWT7: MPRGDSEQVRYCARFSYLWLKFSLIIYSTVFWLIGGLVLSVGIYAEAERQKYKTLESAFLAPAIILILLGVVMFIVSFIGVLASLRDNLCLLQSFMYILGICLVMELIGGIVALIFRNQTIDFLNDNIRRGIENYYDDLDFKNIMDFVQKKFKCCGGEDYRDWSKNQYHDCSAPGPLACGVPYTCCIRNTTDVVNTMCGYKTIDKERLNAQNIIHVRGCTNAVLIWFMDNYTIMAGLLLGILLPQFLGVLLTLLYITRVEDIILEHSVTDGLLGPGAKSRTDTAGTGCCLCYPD
# UniProt O35598, residues 215-749: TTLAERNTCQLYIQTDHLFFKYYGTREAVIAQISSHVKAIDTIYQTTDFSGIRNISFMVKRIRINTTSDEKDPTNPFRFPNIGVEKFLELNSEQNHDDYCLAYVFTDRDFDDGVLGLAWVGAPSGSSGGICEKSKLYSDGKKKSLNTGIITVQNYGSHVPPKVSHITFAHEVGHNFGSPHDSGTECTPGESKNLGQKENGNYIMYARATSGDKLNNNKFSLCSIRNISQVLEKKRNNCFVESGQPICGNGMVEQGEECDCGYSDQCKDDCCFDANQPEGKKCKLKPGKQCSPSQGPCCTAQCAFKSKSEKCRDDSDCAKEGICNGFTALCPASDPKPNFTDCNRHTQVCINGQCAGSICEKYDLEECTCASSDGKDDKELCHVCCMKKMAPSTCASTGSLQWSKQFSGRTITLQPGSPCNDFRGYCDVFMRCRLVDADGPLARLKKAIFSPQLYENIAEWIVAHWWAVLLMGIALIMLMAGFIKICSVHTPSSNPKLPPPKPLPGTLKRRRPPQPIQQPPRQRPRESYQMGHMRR
# UniProt Q9Z0F8: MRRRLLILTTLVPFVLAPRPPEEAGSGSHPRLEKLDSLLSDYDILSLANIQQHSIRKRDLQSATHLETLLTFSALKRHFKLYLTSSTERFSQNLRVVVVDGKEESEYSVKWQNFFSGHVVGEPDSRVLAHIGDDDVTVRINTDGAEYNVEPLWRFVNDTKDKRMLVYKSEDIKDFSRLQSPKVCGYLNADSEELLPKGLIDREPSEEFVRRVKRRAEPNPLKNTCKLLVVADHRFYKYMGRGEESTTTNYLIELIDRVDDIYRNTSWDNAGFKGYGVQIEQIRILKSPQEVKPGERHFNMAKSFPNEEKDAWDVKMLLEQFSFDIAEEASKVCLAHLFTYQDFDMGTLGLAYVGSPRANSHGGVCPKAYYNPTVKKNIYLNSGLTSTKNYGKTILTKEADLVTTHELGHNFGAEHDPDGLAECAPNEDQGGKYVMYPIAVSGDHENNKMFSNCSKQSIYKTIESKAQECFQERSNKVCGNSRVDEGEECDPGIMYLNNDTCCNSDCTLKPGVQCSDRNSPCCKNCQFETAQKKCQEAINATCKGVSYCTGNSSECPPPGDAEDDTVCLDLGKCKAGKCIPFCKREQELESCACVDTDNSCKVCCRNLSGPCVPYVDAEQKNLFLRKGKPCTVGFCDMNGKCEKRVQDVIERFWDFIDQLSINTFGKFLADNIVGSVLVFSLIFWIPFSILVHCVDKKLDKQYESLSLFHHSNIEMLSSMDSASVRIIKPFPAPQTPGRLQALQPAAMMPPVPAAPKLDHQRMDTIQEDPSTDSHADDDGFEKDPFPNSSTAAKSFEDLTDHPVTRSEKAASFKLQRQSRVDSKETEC
# Where a chain is given by its changes, count along the chain named. No constants are given. Whether binding was seen depends on the method and setting. Binding seen in cells or lysates may run through a third protein. Some results given as binding are weak or reduced against the parent protein; the word gives no strength. For part of these data: Tags and fused reporters may be left off the sequences shown.
# B1: Tspan14, endogenous human (protein, UniProt Q8NG11 1-270)
# chain: MHYYRYSNAKVSCWYKYLLFSYNIIFWLAGVVFLGVGLWAWSEKGVLSDLTKVTRMHGIDPVVLVLMVGVVMFTLGFAGCVGALRENICLLNFFCGTIVLIFFLELAVAVLAFLFQDWVRDRFREFFESNIKSYRDDIDLQNLIDSLQKANQCCGAYGPEDWDLNVYFNCSGASYSREKCGVPFSCCVPDPAQKVVNTQCGYDVRIQLKSKWDESIFTKGCIQALESWLPRNIYIVAGVFIAISLLQIFGIFLARTLISDIEAVKAGHHF
# B2: Tspan14, endogenous mouse (protein, UniProt Q8QZY6 1-270)
# chain: B1 chain with K10E, I25V, M56L, N92K, T97A, S215F, S227G
# B3: CD9, endogenous human, P21926 1-228 (protein)
# chain: MPVKGGTKCIKYLLFGFNFIFWLAGIAVLAIGLWLRFDSQTKSIFEQETNNNNSSFYTGVYILIGAGALMMLVGFLGCCGAVQESQCMLGLFFGFLLVIFAIEIAAAIWGYSHKDEVIKEVQEFYKDTYNKLKTKDEPQRETLKAIHYALNCCGLAGGVEQFISDICPKKDVLETFTVKSCPDAIKEVFDNKFHIIGAVGIGIAVVMIFGMIFSMILCCAIRRNREMV
# Tests used:
# [1] = molecular target: T1, FLAG-tagged mouse Tspan14 (mouse) (UniProt Q8QZY6); assay: co-IP; HEK-293T co-transfected with FLAG-tagged mouse TspanC8s and HA-tagged mouse ADAM10/ADAM17 constructs or pDisplay human ADAM10 truncations; 1% digitonin lysis; anti-FLAG immunoprecipitation; anti-HA blot
# T1 sequence: B1 chain with K10E, I25V, M56L, N92K, T97A, S215F, S227G
# [2] = molecular target: T2, FLAG-tagged mouse Tspan10 (mouse) (UniProt Q8VCF5); assay: as above
# T2 sequence: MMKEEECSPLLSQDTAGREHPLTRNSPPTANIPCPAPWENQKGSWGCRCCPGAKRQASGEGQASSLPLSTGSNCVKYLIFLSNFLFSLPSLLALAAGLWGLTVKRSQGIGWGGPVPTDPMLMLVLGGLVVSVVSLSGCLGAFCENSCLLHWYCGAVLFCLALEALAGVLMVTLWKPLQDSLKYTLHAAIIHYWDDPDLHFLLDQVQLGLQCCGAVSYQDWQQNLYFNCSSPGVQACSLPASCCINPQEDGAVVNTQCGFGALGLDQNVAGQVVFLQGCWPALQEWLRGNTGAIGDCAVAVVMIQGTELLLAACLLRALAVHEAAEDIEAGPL
# [3] = molecular target: FLAG-tagged mouse Tspan15 (mouse) (UniProt F7BWT7); assay: as above
# [4] = molecular target: T3, FLAG-tagged mouse Tspan17 (mouse) (UniProt Q9D7W4); assay: as above
# T3 sequence: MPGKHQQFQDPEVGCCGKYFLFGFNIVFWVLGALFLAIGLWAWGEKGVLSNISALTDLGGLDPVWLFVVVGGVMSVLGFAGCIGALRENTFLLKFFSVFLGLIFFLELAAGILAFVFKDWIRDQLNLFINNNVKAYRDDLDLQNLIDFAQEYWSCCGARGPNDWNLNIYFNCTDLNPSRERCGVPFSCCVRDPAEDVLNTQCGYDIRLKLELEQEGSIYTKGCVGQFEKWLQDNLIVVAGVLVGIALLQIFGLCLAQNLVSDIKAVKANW
# [5] = molecular target: T4, FLAG-tagged mouse Tspan33 (mouse) (UniProt Q8R3S2); assay: as above
# T4 sequence: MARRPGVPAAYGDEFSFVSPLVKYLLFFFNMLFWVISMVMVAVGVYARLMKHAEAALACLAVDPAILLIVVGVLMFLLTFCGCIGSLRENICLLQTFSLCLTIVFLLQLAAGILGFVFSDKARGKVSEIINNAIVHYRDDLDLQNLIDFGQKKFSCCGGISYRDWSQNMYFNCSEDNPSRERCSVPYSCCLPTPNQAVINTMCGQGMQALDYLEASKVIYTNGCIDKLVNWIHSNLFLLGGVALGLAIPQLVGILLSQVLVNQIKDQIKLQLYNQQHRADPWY
# [6] = molecular target: T5, FLAG-tagged mouse Tspan5 (mouse) (UniProt P62080); assay: as above
# T5 sequence: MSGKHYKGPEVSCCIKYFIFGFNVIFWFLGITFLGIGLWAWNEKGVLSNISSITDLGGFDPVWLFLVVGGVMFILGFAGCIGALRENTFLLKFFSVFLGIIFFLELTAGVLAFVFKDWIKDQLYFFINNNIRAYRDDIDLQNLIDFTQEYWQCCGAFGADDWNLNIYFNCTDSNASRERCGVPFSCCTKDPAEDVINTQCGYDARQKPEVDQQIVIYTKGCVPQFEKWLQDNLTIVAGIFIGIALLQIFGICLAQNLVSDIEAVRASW
# [7] = molecular target: A disintegrin and metalloprotease 10 (ADAM10), endogenous human (human (endogenous in platelets and HUVECs)) (UniProt O14672); assay: co-IP; HUVECs (2.2 x 10^6 per immunoprecipitation) lysed in 1% digitonin lysis buffer; anti-ADAM10 or isotype-matched control on protein G-Sepharose; non-reducing gels, blots for Tspan14, ADAM10, CD9
# [8] = molecular target: A disintegrin and metalloprotease 10 (ADAM10), endogenous human (human (endogenous in platelets and HUVECs)) (UniProt O14672); assay: co-IP; washed human platelets (4 x 10^8 per immunoprecipitation) lysed in 1% digitonin lysis buffer; anti-ADAM10 or isotype-matched control on protein G-Sepharose, 90 min, washed in 0.1% digitonin; non-reducing gels, blots for Tspan14, ADAM10, CD9
# [9] = molecular target: A disintegrin and metalloprotease 10 (ADAM10), endogenous mouse (mouse (endogenous in platelets)) (UniProt O35598); assay: co-IP; washed mouse platelets (1.6 x 10^8 per immunoprecipitation) lysed in 1% digitonin lysis buffer; anti-ADAM10 or isotype-matched control on protein G-Sepharose; non-reducing gels, blots for Tspan14, ADAM10, CD9
# [10] = molecular target: T6, A disintegrin and metalloprotease 10 (ADAM10), endogenous human (human (endogenous in platelets and HUVECs)), O14672; assay: co-IP; HUVECs (2.2 x 10^6 per immunoprecipitation) lysed in 1% digitonin lysis buffer; anti-ADAM10 or isotype-matched control on protein G-Sepharose; non-reducing gels, blots for Tspan14, ADAM10, CD9; settings: remark: other sources report otherwise
# T6 chain: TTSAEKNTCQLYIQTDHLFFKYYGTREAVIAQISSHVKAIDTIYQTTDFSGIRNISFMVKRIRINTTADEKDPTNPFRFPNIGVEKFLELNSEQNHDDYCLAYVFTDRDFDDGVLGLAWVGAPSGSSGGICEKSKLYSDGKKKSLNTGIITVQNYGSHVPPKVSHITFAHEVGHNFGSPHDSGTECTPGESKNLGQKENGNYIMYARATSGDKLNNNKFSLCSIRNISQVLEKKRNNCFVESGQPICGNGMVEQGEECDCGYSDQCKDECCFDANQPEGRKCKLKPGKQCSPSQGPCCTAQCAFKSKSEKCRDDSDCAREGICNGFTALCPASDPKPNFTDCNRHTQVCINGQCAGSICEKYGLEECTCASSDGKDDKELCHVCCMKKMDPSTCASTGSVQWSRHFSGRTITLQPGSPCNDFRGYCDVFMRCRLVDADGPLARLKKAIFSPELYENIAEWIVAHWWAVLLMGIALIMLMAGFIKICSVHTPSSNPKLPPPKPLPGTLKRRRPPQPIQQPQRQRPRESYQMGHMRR
# [11] = molecular target: T6, A disintegrin and metalloprotease 10 …; assay: co-IP; washed human platelets (4 x 10^8 per immunoprecipitation) lysed in 1% digitonin lysis buffer; anti-ADAM10 or isotype-matched control on protein G-Sepharose, 90 min, washed in 0.1% digitonin; non-reducing gels, blots for Tspan14, ADAM10, CD9; settings: remark: other sources report otherwise
molecule,measurement,setting,value
"ADAM17 10C chimera (mouse ADAM17 with the ADAM10 cysteine-rich domain), HA-tagged (from UniProt Q9Z0F8 18-563; O35598 553-647; Q9Z0F8 643-827)",binding,[1],no binding
"ADAM17 10DCS chimera (mouse ADAM17 with the ADAM10 disintegrin, cysteine-rich and stalk region), HA-tagged (from UniProt Q9Z0F8 18-474; O35598 458-673; Q9Z0F8 672-827)",binding,[2],binds
same,binding,[1],binds
same,binding,[3],binds
same,binding,[4],binds
same,binding,[5],binds
same,binding,[6],binds
"ADAM10 17DCS chimera (mouse ADAM10 with the ADAM17 disintegrin, cysteine-rich and stalk region), HA-tagged (from UniProt O35598 20-457; Q9Z0F8 475-671; O35598 674-749)",binding,[1],no binding
"ADAM17 10D chimera (mouse ADAM17 with the ADAM10 disintegrin domain), HA-tagged (from UniProt Q9Z0F8 18-474; O35598 458-552; Q9Z0F8 564-827)",binding,[1],no binding
"ADAM17 10S chimera (mouse ADAM17 with the ADAM10 stalk region), HA-tagged (from UniProt Q9Z0F8 18-642; O35598 648-673; Q9Z0F8 672-827)",binding,[1],no binding
B1,binding,[7],binds
same,binding,[8],binds
B2,binding,[9],binds
B3,binding,[10],no binding
same,binding,[11],no binding
